# Source: PubChem BioAssay AID1240 (Sanford-Burnham Center for Chemical Genomics, 2008)
# Among all 50,000 compounds or so, about 800 (1.6%) showed an effect of 50% or more. This is one part of the list.
# Target: Bcl-2-like protein 10 (Homo sapiens) (UniProt Q9HD36)
# Experiment: TR3 peptide-Bcl-B binding displacers, biochemical primary FP assay, phenotype converters (AID 1240);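 further: 0% = Bcl-B with tracer peptide and DMSO and 100% = tracer peptide lacking Bcl-B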
# Settings: GST-Bcl-B / FITC-TR3 peptide fluorescence polarization; stronger effect = higher value; compound at 3.75 mg/L
# UniProt Q9HD36, sequence (Q9HD36 whole entry, looked up): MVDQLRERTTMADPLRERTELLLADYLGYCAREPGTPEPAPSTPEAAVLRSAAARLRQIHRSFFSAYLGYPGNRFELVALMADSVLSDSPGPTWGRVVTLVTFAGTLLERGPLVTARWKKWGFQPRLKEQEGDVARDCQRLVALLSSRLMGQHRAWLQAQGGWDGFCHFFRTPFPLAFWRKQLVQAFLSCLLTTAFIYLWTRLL
row,SMILES,displacement [%]
1,Cc1ccc(-c2nc3ccccc3c(=O)n2-c2ncccc2C)cc1,-11.7
2,O=Cc1cn(Cc2ccc(Cl)cc2Cl)c2ccccc12,2.2
3,CC(C)CC(=O)NC(Oc1ccc(Cl)cc1)C(Cl)(Cl)Cl (configuration not stated),15.4
4,O=[N+]([O-])c1ccc(CN2CCN(Cc3ccccc3F)CC2)cc1,-9.3
5,COc1ccc(CCNCc2ccccc2C(F)(F)F)cc1,5.4
6,O=[N+]([O-])N=S(c1ccccc1)c1ccccc1,-4.8
7,COc1ccc(CNCCc2ccc(Cl)cc2)cc1,14
8,O=[N+]([O-])c1ccc(NCCCO)c2ncccc12,8.8
9,O=[N+]([O-])c1ccc(CN2CCN(Cc3cccc(Cl)c3)CC2)cc1,-10.6
10,O=[N+]([O-])/C=C/c1ccccc1OCc1ccc(Cl)cc1Cl,4.5
11,O=C(Nc1ccc(Cl)cc1C(=O)c1ccccc1)c1ccc(S(=O)(=O)N2CCCCC2)cc1,-7.3
12,Clc1ccc(CNCCc2ccc3c(c2)OCO3)cc1,-16.4
13,O=Cc1cn(Cc2c(Cl)cccc2Cl)c2ccccc12,4.7
14,COc1cccc(-n2c(/C=C/c3cccnc3)nc3ccccc3c2=O)c1,0.6
15,Cc1cc(/C=C2\C(=O)NC(=O)N(C)C2=O)c(C)n1-c1ccc2c(c1)OCO2,107
16,Oc1ccc(Br)cc1CN1CCN(Cc2cccc(Cl)c2)CC1,0.8
17,O=C1CC(=O)N(c2ccccc2)C(=S)N1,-2.1
18,O=c1c2ccccc2nc(/C=C/c2ccc(O)cc2)n1-c1ccccc1[N+](=O)[O-],0.1
19,CCC(CC)NCCc1ccc(OC)c(OC)c1,-5

row,SMILES,displacement [%]
1,CC(=O)Oc1cc(C)cc2oc(=O)c3c(c12)CCCC3,-4.5
2,COc1ccc(CCNCc2cccn2C)cc1OC,2.7
3,NS(=O)(=O)c1ccc(N=Cc2c(O)n(C3CCCCC3)c(=O)n(C3CCCCC3)c2=O)cc1,5.2
4,COc1ccc(CN2CCN(C(=O)COc3ccc(Cl)cc3)CC2)cc1OCc1ccccc1,7.4
5,Cc1cccnc1-n1c(C)nc2ccccc2c1=O,-7.8
6,COc1ccc(-c2ccc(C=C3C(=O)NC(=O)NC3=O)o2)c([N+](=O)[O-])c1,14
7,Cc1cc(-c2ccc(C=C3C(=O)NC(=S)NC3=O)o2)cc([N+](=O)[O-])c1C,7.7
8,COc1cc(OC)c(OC)cc1CNCCc1ccc(Cl)cc1,13.6
9,O=C1NC(=S)NC(=O)C1=Cc1ccccc1OCc1ccccc1F,15.3
10,CCCCCn1c(=O)c(C(=O)Nc2cccc(C)c2)c(O)c2ccccc21,3.9
11,CCOc1ccc(N2C(=O)/C(=C/c3ccc(C)cc3)C(=O)NC2=S)cc1,-14.1
12,CCc1nc2ccccc2c(=O)n1-c1cccc([N+](=O)[O-])c1,7
13,COc1ccccc1CCNCc1ccc([N+](=O)[O-])cc1,2.4
14,O=C1c2ccccc2C(=O)N1Cc1nc2ccccc2c(=O)n1-c1ccc(Br)cn1,8.5
15,COC(=O)C(=O)N1CC2(C)CNCC(C)(C1)C2=O,-9.7
16,COc1cccc(C=C2C(=O)NC(=S)NC2=O)c1,3.2
17,CN(C)c1ccc(/C=C2/C(=O)C3CCN2CC3)cc1,30.3
18,O=[N+]([O-])c1cccc(CNCCc2cccc(F)c2)c1,1.8
19,CC(/C=C/c1c[nH]c2ccccc12)=N/O,8.6

row,SMILES,displacement [%]
1,O=C1NC(=O)N(c2ccccc2Cl)C(=O)C1=Cc1ccccc1,12.8
2,Cc1ccc(-n2c(-c3ccccn3)nc3ccccc3c2=O)cc1,-3.9
3,COc1ccc(CNCCc2ccc(Cl)cc2Cl)c(OC)c1,9.6
4,Cc1ccc(C)n1-c1ccc(N2CCNCC2)c([N+](=O)[O-])c1,17.9
5,COc1cc(/C=C/[N+](=O)[O-])cc(Br)c1O,7.3
6,O=c1c2ccccc2nc(-c2cccs2)n1-c1ccccn1,19.3
7,COc1ccc(/C=C/C(=O)NC(C)Cc2ccccc2)cc1 (configuration not stated),-12.2
8,COc1cc(CNCCc2c[nH]c3ccccc23)cc(OC)c1O,-10.3
9,O=C1NC(=O)N(c2cccc(Br)c2)C(=O)/C1=C/c1ccc(-c2ccc(C(=O)O)cc2)o1,-56.7
10,CN(C)c1ccc(/C=C\c2nc3ccccc3c(=O)n2-c2ccc(O)cc2)cc1,9
11,COC(=O)C(=O)/C(=C\c1ccc(-c2ccccc2[N+](=O)[O-])o1)C(=O)c1ccccc1,56.7
12,O=C(Cc1ccc(Cl)cc1)N1CCN(C/C=C/c2ccccc2)CC1,11.2
13,CN1CN(Cc2ccccc2)CN/C1=N/[N+](=O)[O-],11.8
14,COc1cccc(N2C(=O)CC(=O)NC2=O)c1,-8.2
15,CCOC(=O)c1c(-n2c(C)cc(C=C3C(=O)NC(=S)NC3=O)c2C)sc2c1CCCC2,12
16,O=c1c2ccccc2nc(-c2ccco2)n1-c1ccccn1,-8.3
17,O=C(Nc1ccc(Cl)cc1C(=O)c1ccccc1)c1ccc([N+](=O)[O-])cc1,2.1
18,Cc1nc2ccc(I)cc2c(=O)n1-c1ccc([N+](=O)[O-])cc1Cl,13
19,CN=C(C)c1c(O)n(C)c(=S)n(C)c1=O,8.8
